The values below come from the supplement of paper PMC11055344.

MIC of nasopharyngeal S. pneumoniae isolates by broth microdilution (range and time not stated); higher = less susceptible. No active / inactive call per row; the paper counts penicillin above 0.06 and amoxicillin above 0.5 mg/L as non-susceptible (EUCAST). The lowest value, 0.01, is taken as the floor ('<='); the source prints it plain. Penicillin G is assumed for 'penicillin'. Isolates are numbered anew. PBP alleles are the type numbers of penicillin-binding proteins 1a, 2b and 2x; equal numbers mean equal sequences.

Compound in experiment [1]: CC1(C)S[C@@H]2[C@H](NC(=O)Cc3ccccc3)C(=O)N2[C@H]1C(=O)O [penicillin G]
Nature of the experiment: Broth microdilution.

Compound in experiment [2]: CC1(C)S[C@@H]2[C@H](NC(=O)[C@H](N)c3ccc(O)cc3)C(=O)N2[C@H]1C(=O)O [amoxicillin]
Put plainly: Broth microdilution. (In general: Dilution methods test growth across graded concentrations, often in twofold steps.)

Usually MIC stands for the lowest concentration that inhibits growth of the organism. On to “Streptococcus pneumoniae isolate 363 (PBP alleles 1a 2b 2x: 1_0_187, serotype: 19A)”, for which the MIC in experiment [1] and in experiment [2] was at most 0.01 µg/mL throughout.

Turning to “Streptococcus pneumoniae isolate 364 (PBP alleles 1a 2b 2x: 0_0_2, serotype: 10A)”, the MIC in experiment [1] is 0.03 µg/mL; in experiment [2] it was at most 0.01 µg/mL.

Turning to “Streptococcus pneumoniae isolate 365 (PBP alleles 1a 2b 2x: 2_0_2, serotype: 15A)”, the MIC in experiment [1] and in experiment [2] was 0.03 µg/mL each time.

As to “Streptococcus pneumoniae isolate 366 (PBP alleles 1a 2b 2x: 1_0_0, serotype: 15A)”, the MIC in experiment [1] and in experiment [2] was at most 0.01 µg/mL throughout.

Regarding “Streptococcus pneumoniae isolate 367 (PBP alleles 1a 2b 2x: 1_0_0, serotype: 15A)”, the MIC was 0.03 µg/mL in experiment [1] and at most 0.01 µg/mL in experiment [2].

As to “Streptococcus pneumoniae isolate 368 (PBP alleles 1a 2b 2x: 2_0_2, serotype: 15B/C)”, the MIC in experiment [1] and in experiment [2] was at most 0.01 µg/mL each time.

Regarding “Streptococcus pneumoniae isolate 369 (PBP alleles 1a 2b 2x: 0_6_2, serotype: 16F)”, the MIC in experiment [1] and in experiment [2] was 0.03 µg/mL throughout.

With “Streptococcus pneumoniae isolate 370 (PBP alleles 1a 2b 2x: 4_12_7, serotype: 35B)”, the MIC in experiment [1] and in experiment [2] was 2 µg/mL in each case.

For “Streptococcus pneumoniae isolate 371 (PBP alleles 1a 2b 2x: 0_0_0, serotype: 34)”, the figures for the MIC in experiment [1] and in experiment [2] were 0.03 µg/mL and at most 0.01 µg/mL, respectively.

Consider “Streptococcus pneumoniae isolate 372 (PBP alleles 1a 2b 2x: 0_0_3, serotype: 35F)”, for which the results for the MIC in experiment [1] and in experiment [2] were 0.03 µg/mL and at most 0.01 µg/mL, respectively.

As to “Streptococcus pneumoniae isolate 373 (PBP alleles 1a 2b 2x: 2_3_2, serotype: 3)”, the MIC in experiment [1] and in experiment [2] was at most 0.01 µg/mL in each case.

As to “Streptococcus pneumoniae isolate 374 (PBP alleles 1a 2b 2x: 0_0_0, serotype: 15B/C)”, the MIC is 0.03 µg/mL in experiment [1] and at most 0.01 µg/mL in experiment [2].

Regarding “Streptococcus pneumoniae isolate 375 (PBP alleles 1a 2b 2x: 0_0_53, serotype: 10A)”, the MIC in experiment [1] and in experiment [2] was at most 0.01 µg/mL throughout.

With “Streptococcus pneumoniae isolate 376 (PBP alleles 1a 2b 2x: 2_0_6, serotype: 33F)”, the MIC in experiment [1] and in experiment [2] was at most 0.01 µg/mL throughout.

Regarding “Streptococcus pneumoniae isolate 377 (PBP alleles 1a 2b 2x: 0_0_3, serotype: 35F)”, the minimum inhibitory concentration (MIC) in experiment [1] and in experiment [2] was at most 0.01 µg/mL each time.

Turning to “Streptococcus pneumoniae isolate 378 (PBP alleles 1a 2b 2x: 0_0_New, serotype: 35B)”, the MIC turned out to be 0.06 µg/mL in experiment [1] and 0.03 µg/mL in experiment [2].

As for “Streptococcus pneumoniae isolate 379 (PBP alleles 1a 2b 2x: 0_0_3, serotype: 35F)”, the minimal inhibitory concentration (MIC) in experiment [1] was 0.03 µg/mL; in experiment [2], at most 0.01 µg/mL.

As to “Streptococcus pneumoniae isolate 380 (PBP alleles 1a 2b 2x: 11_4_0, serotype: 37)”, the MIC in experiment [1] and in experiment [2] was at most 0.01 µg/mL throughout.

“Streptococcus pneumoniae isolate 381 (PBP alleles 1a 2b 2x: 1_0_0, serotype: 15A)”: the MIC was 0.03 µg/mL in experiment [1] and at most 0.01 µg/mL in experiment [2].

Regarding “Streptococcus pneumoniae isolate 382 (PBP alleles 1a 2b 2x: 1_2_2, serotype: 22F)”, the figures for the minimal inhibitory concentration (MIC) in experiment [1] and in experiment [2] were 0.03 µg/mL and at most 0.01 µg/mL, respectively.
